Assay results as given in the supplement of paper PMC4604168 (melanoma cell lines).
This is one part of the list. Single values are uncertain, as repeats are few or missing.

Tests used:
Assay in all cases: cell count relative to DMSO control; melanoma cells; higher = more viable cells
Details in all cases: library dose: low library concentration; 72 h
MZ2-MEL = tested on: MZ2-MEL
MeWo = tested on: MeWo
RPMI7951 = tested on: RPMI7951
RVH-421 = tested on: RVH-421
SkMel28 = tested on: SkMel28
SkMel2 = tested on: SkMel2
SkMel30 = tested on: SkMel30
SkMel5 = tested on: SkMel5
UACC257 = tested on: UACC257
UACC62 = tested on: UACC62
WM115 = tested on: WM115
WM1716 = tested on: WM1716
WM1745 = tested on: WM1745
WM3526 = tested on: WM3526
WM3619 = tested on: WM3619
WM451Lu = tested on: WM451Lu
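Further: cell number obtained by counting DAPI-stained nuclei in high-throughput microscope images with image analysis software, screen run in 1,536-well plates.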

Structure (SMILES) | cell count (MZ2-MEL) [%] | cell count (MeWo) [%] | cell count (RPMI7951) [%] | cell count (RVH-421) [%] | cell count (SkMel28) [%] | cell count (SkMel2) [%] | cell count (SkMel30) [%] | cell count (SkMel5) [%] | cell count (UACC257) [%] | cell count (UACC62) [%] | cell count (WM115) [%] | cell count (WM1716) [%] | cell count (WM1745) [%] | cell count (WM3526) [%] | cell count (WM3619) [%] | cell count (WM451Lu) [%]
NC1(c2ccc(-c3nc4ccn5c(=O)[nH]nc5c4cc3-c3ccccc3)cc2)CCC1 + O=C(Nc1cccc(Cl)c1)Nc1ncc(CCNc2ncnc3ccsc23)s1 [SNS314] (first compound 0.4 µM, partner dose 0.0008 µM) | 95.1 | 93.5 | 83 | 80.5 | 68.4 | 80 | 98.9 | 92.7 | 84.4 | 67.8 | 58 | 114 | 93.4 | 78.9 | 101 | 91
CN(c1ncccc1CNc1nc(Nc2ccc3c(c2)CC(=O)N3)ncc1C(F)(F)F)S(C)(=O)=O + OCCn1cc(-c2cnc3nnn(Cc4ccc5ncccc5c4)c3n2)cn1 [PF04217903] (first compound 0.08 µM, partner dose 1 µM) | 87.3 | 95.8 | 46.8 | 122 | 94.9 | 94.6 | 88 | 84.5 | 61.3 | 85.8 | 78.5 | 92.7 | 84.5 | 98 | 75.3 | 47.1
C=C(c1ccc(C(=O)O)cc1)c1cc2c(cc1C)C(C)(C)CCC2(C)C [Bexarotene] + Oc1cc(-c2nc(-c3ccccc3)[nH]c2-c2ccncc2)ccc1Cl [L779450] (first compound 2 µM, partner dose 0.2 µM) | 89.5 | 98.3 | 103 | 106 | 73 | 97.2 | 98.8 | 116 | 103 | 74.5 | 93.2 | 98.6 | 105 | 80.5 | 96.9 | 99.5
CCCS(=O)(=O)Nc1ccc(F)c(C(=O)c2c[nH]c3ncc(Cl)cc23)c1F + C[C@@H]1CCN(C(=O)CC#N)C[C@@H]1N(C)c1ncnc2[nH]ccc12 [CP690550] (first compound 0.08 µM, partner dose 1 µM) | 88.3 | 90.6 | 116 | 99.5 | 76.3 | 90.4 | 89.5 | 106 | 103 | 62.5 | 92.3 | 116 | 85.8 | 87.9 | 93.6 | 106
CN(c1ncccc1CNc1nc(Nc2ccc3c(c2)CC(=O)N3)ncc1C(F)(F)F)S(C)(=O)=O + COC(=O)c1sccc1S(=O)(=O)Nc1ccc(Nc2ccccc2)cc1OC [GSK0660] (first compound 0.08 µM, partner dose 1 µM) | 93 | 94.9 | 91.7 | 80.6 | 68.4 | 85.4 | 98.7 | 73.3 | 84.8 | 96.7 | 74.8 | 96.8 | 75.2 | 99.7 | 108 | 113
CS(=O)(=O)c1ccc(C(=O)Nc2ccc(Cl)c(-c3ccccn3)c2)c(Cl)c1 [vismodegib] + CCc1ccc(CCOc2ccc(CC3SC(=O)NC3=O)cc2)nc1 [pioglitazone] (first compound 1 µM, partner dose 2 µM) | 103 | 103 | 111 | 112 | 99.2 | 97.4 | 103 | 104 | 114 | 95.4 | 113 | 105 | 94.1 | 86.1 | 98.8 | 109
CS(=O)(=O)c1ccc(C(=O)Nc2ccc(Cl)c(-c3ccccn3)c2)c(Cl)c1 [vismodegib] + c1cc(-c2cnn3cc(-c4ccc(OCCN5CCCCC5)cc4)cnc23)ccn1 [Dorsomorphin] (first compound 1 µM, partner dose 0.4 µM) | 92.5 | 88.3 | 98.1 | 93.1 | 87.6 | 97.5 | 111 | 77.2 | 87.5 | 89.3 | 109 | 73.7 | 71.3 | 93.8 | 93.3 | 92.2
CCCS(=O)(=O)Nc1ccc(F)c(C(=O)c2c[nH]c3ncc(Cl)cc23)c1F + CN(NC(=O)CC(=O)NN(C)C(=S)c1ccccc1)C(=S)c1ccccc1 [STA4783] (first compound 0.08 µM, partner dose 0.006 µM) | 90.8 | 84.7 | 112 | 67.9 | 71.7 | 93 | 88 | 114 | 80.9 | 54.8 | 76.9 | 83.9 | 43.8 | 90 | 45.7 | 73.5
NC1(c2ccc(-c3nc4ccn5c(=O)[nH]nc5c4cc3-c3ccccc3)cc2)CCC1 + COc1cc(Nc2ncc(F)c(Nc3ccc4c(n3)NC(=O)C(C)(C)O4)n2)cc(OC)c1OC [Tamatinib] (first compound 0.4 µM, partner dose 0.4 µM) | 86.8 | 79.5 | 85.9 | 82.2 | 64.9 | 60.8 | 79 | 84.9 | 91.5 | 59.3 | 57.8 | 95.9 | 69.1 | 53.2 | 83 | 115
C=C(c1ccc(C(=O)O)cc1)c1cc2c(cc1C)C(C)(C)CCC2(C)C [Bexarotene] + COc1ccc(COc2ccc(Cc3cnc(N)nc3N)cc2OC)cc1 [GW2580] (first compound 2 µM, partner dose 1 µM) | 93.1 | 86.3 | 92.4 | 158 | 83.8 | 87.2 | 117 | 85.5 | 115 | 104 | 96.2 | 92.3 | 92 | 93.7 | 86.5 | 125
CN(c1ncccc1CNc1nc(Nc2ccc3c(c2)CC(=O)N3)ncc1C(F)(F)F)S(C)(=O)=O + c1cc(-c2cnn3cc(-c4ccc(OCCN5CCCCC5)cc4)cnc23)ccn1 [Dorsomorphin] (first compound 0.08 µM, partner dose 0.4 µM) | 89.8 | 96 | 65.9 | 78.2 | 95.3 | 85.7 | 102 | 67 | 97.4 | 79.6 | 76.5 | 78.5 | 80 | 82.9 | 78.4 | 79.6
CCCS(=O)(=O)Nc1ccc(F)c(C(=O)c2c[nH]c3ncc(Cl)cc23)c1F + COc1cc2ncnc(Nc3ccc(Oc4ccccc4)cc3)c2cc1OC [SrcI1] (first compound 0.08 µM, partner dose 2 µM) | 81.9 | 98.9 | 99.6 | 75.6 | 89.4 | 107 | 88.2 | 119 | 106 | 90.4 | 96.4 | 115 | 82 | 63.3 | 97.1 | 111
CCCS(=O)(=O)Nc1ccc(F)c(C(=O)c2c[nH]c3ncc(Cl)cc23)c1F + COc1ccc(COc2ccc(Cc3cnc(N)nc3N)cc2OC)cc1 [GW2580] (first compound 0.08 µM, partner dose 1 µM) | 89.6 | 108 | 106 | 97.1 | 84.8 | 104 | 91.9 | 108 | 101 | 65.7 | 92.8 | 108 | 88.2 | 72.3 | 86.5 | 89.7
CCCS(=O)(=O)Nc1ccc(F)c(C(=O)c2c[nH]c3ncc(Cl)cc23)c1F + OCCn1cc(-c2cnc3nnn(Cc4ccc5ncccc5c4)c3n2)cn1 [PF04217903] (first compound 0.08 µM, partner dose 1 µM) | 99 | 107 | 118 | 75.1 | 87.9 | 99.8 | 94.4 | 114 | 98.1 | 73.5 | 98.2 | 113 | 94.4 | 58.2 | 104 | 102
NC1(c2ccc(-c3nc4ccn5c(=O)[nH]nc5c4cc3-c3ccccc3)cc2)CCC1 + COc1ccc(-c2ccc3c(N4CCOCC4)nc(N4C[C@@H](C)O[C@@H](C)C4)nc3n2)cc1CO [KU0063794] (first compound 0.4 µM, partner dose 0.02 µM) | 90.9 | 74.7 | 84.7 | 81.7 | 68 | 84.3 | 76.3 | 103 | 53.2 | 70.2 | 69.8 | 80.7 | 84.8 | 65.6 | 74.7 | 104
CCCS(=O)(=O)Nc1ccc(F)c(C(=O)c2c[nH]c3ncc(Cl)cc23)c1F + O=C(CCCCCCC(=O)Nc1ccccc1)NO [vorinostat] (first compound 0.08 µM, partner dose 0.08 µM) | 88.1 | 94.2 | 111 | 83.1 | 79.8 | 100 | 79 | 102 | 73.9 | 82.7 | 109 | 130 | 110 | 72.6 | 91.8 | 103
CCCS(=O)(=O)Nc1ccc(F)c(C(=O)c2c[nH]c3ncc(Cl)cc23)c1F + CC1(C)NC(=O)N(c2ccc([N+](=O)[O-])c(C(F)(F)F)c2)C1=O [nilutamide] (first compound 0.08 µM, partner dose 1 µM) | 92.6 | 109 | 110 | 67.3 | 83.4 | 97.3 | 99.5 | 109 | 106 | 54.3 | 107 | 105 | 96.2 | 77.9 | 112 | 99
CS(=O)(=O)c1ccc(C(=O)Nc2ccc(Cl)c(-c3ccccn3)c2)c(Cl)c1 [vismodegib] + Cn1cc(/C=C2\C(=O)Nc3cccnc32)c2ccccc21 [GW441756] (first compound 1 µM, partner dose 0.4 µM) | 99.3 | 84.7 | 101 | 131 | 99.9 | 110 | 82.4 | 78.9 | 83.6 | 101 | 105 | 107 | 122 | 109 | 109 | 115
CN(c1ncccc1CNc1nc(Nc2ccc3c(c2)CC(=O)N3)ncc1C(F)(F)F)S(C)(=O)=O + CN(C)S(=O)(=O)c1ccc2c(c1)/C(=C/c1cc3c([nH]1)CCCC3)C(=O)N2 [SU6656] (first compound 0.08 µM, partner dose 0.4 µM) | 93.7 | 92 | 89.9 | 81.1 | 89.9 | 86 | 89.8 | 68.8 | 78 | 74.5 | 74.9 | 97.8 | 80.6 | 118 | 96.2 | 91.7
